From the supplement of paper PMC10369915
The list shows a part of the results. Cut-off read from the data, not from the text of the source: active = 3.2 or more and inactive = the rest. The signal is at background level for most entries.

B1: FAS_Y232 (peptide)
chain: VDLSKYITTIA
B2: FARSB_Y72_C76R (peptide)
chain: VPANRYDLLRL
B3: FAM221A_Y17_YF (peptide)
chain: AAVDEYLEFRR
B4: F8_Y442_K444R (peptide)
chain: RIGRKYKRVRF
B5: FGB_Y172_N170H (peptide)
chain: NVVHEYSSELE
B6: FANCD2_Y458_L456R_YF (peptide)
chain: FGSRLYKFAFK
B7: FAM120B_Y368_D370Y (peptide)
chain: REVPVYTYSEP
B8: FBXO8_Y156_Y156H (peptide)
chain: DEGVNHFMSKG
B9: ETV6_Y402_R399C_YF (peptide)
chain: ALCHFYKLNII
B10: FCRL6_Y239_D244N_YF (peptide)
chain: SPPILYSFFLN
B11: FABP4_Y20_E23D (peptide)
chain: ENFDDYMKDVG
B12: FGB_Y71_R74C (peptide)
chain: ISGGGYRACPA
B13: FBXO8_Y156 (peptide)
chain: DEGVNYFMSKG
B14: ESD_Y258_YF (peptide)
chain: RLQEGYDHSFF
B15: FAM3D_Y122_A118S (peptide)
chain: KSFDMYSGDVM
B16: F5_Y2153_M2148T (peptide)
chain: TYVKSYTIHYS
B17: FAM221A_Y20_Y20H_YF (peptide)
chain: DEFLEHRRIVG
B18: FAM114A1_Y115_L116P (peptide)
chain: LQEQNYPAVDS
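Note: displayed peptides selected on beads carrying the immobilized SH2 domain, with library peptides lacking any tyrosine serving as negative controls.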

These binders were tested against SHP2 C-SH2 domain E139D (assay: enrichment score (SH2-bound / input frequency) (ratio); bacterial display of known human phosphotyrosine sites (pTyr-Var adds point mutants) read by sequencing; higher = stronger binding; tyrosines were phosphorylated by kinases first). Details: peptide library: pTyr-Var.
For B1, the enrichment score was inactive: 1.11. In the case of B2, the enrichment score is reported as inactive: 0.816. In the case of B3, the enrichment score is reported as inactive: 0.882. B4 was tested, and the enrichment score was inactive: 0.307. In the case of B5, the enrichment score is reported as inactive: 0.561. In the case of B6, the enrichment score is reported as inactive: 0.583. For B7, the enrichment score was inactive: 0.789. In the case of B8, the enrichment score is reported as inactive: 0.803. In the case of B9, the enrichment score is reported as inactive: 2.49. In the case of B10, the enrichment score is reported as inactive: 1.55. B11 was tested, and the enrichment score was inactive: 0.846. For B12, the enrichment score was inactive: 0.77. For B13, the enrichment score was inactive: 0.797. B14 was tested, and the enrichment score was inactive: 0.888. For B15, the enrichment score was inactive: 0.651. For B16, the enrichment score was inactive: 0.778. For B17, the enrichment score was inactive: 0.828. With B18 the enrichment score was inactive: 1.05.

These binders were tested against SHP2 C-SH2 domain wild-type in the same assay as above. Details: peptide library: pTyr-Var.
B1 was tested, and the enrichment score was inactive: 1.02. In the case of B2, the enrichment score is reported as inactive: 0.829. B3 was tested, and the enrichment score was inactive: 0.752. For B4, the enrichment score was inactive: 0.219. With B5 the enrichment score was inactive: 0.789. B6 was tested, and the enrichment score was inactive: 0.496. With B7 the enrichment score was inactive: 0.777. B8 was tested, and the enrichment score was inactive: 0.601. With B9 the enrichment score was inactive: 2.86. In the case of B10, the enrichment score is reported as inactive: 1.51. B11 was tested, and the enrichment score was inactive: 0.786. With B12 the enrichment score was inactive: 0.812. For B13, the enrichment score was inactive: 0.921. B14 was tested, and the enrichment score was inactive: 0.743. With B15 the enrichment score was inactive: 0.623. With B16 the enrichment score was inactive: 0.941. In the case of B17, the enrichment score is reported as inactive: 0.563. In the case of B18, the enrichment score is reported as inactive: 0.924.

These binders were tested against SHP2 N-SH2 domain L43F in the same assay as above. Details: peptide library: pTyr-Var.
For B1, the enrichment score was inactive: 1.29. B2 was tested, and the enrichment score was inactive: 0.927. For B3, the enrichment score was inactive: 1.21. B4 was tested, and the enrichment score was inactive: 0.322. For B5, the enrichment score was inactive: 0.64. For B6, the enrichment score was inactive: 0.482. In the case of B7, the enrichment score is reported as inactive: 0.979. With B8 the enrichment score was inactive: 0.667. With B9 the enrichment score was inactive: 2.47. B10 was tested, and the enrichment score was inactive: 1.34. In the case of B11, the enrichment score is reported as inactive: 0.656. With B12 the enrichment score was inactive: 0.781. For B13, the enrichment score was inactive: 0.851. For B14, the enrichment score was inactive: 1.19. With B15 the enrichment score was inactive: 0.745. B16 was tested, and the enrichment score was inactive: 1.33. B17 was tested, and the enrichment score was inactive: 0.728. In the case of B18, the enrichment score is reported as inactive: 0.628.

What follows are binders tested against SHP2 N-SH2 domain T42A in the same assay as above. Details: peptide library: pTyr-Var.
B1 was tested, and the enrichment score was inactive: 1.19. B2 was tested, and the enrichment score was inactive: 0.806. With B3 the enrichment score was inactive: 0.725. With B4 the enrichment score was inactive: 0.286. With B5 the enrichment score was inactive: 0.808. In the case of B6, the enrichment score is reported as inactive: 0.501. B7 was tested, and the enrichment score was inactive: 0.728. In the case of B8, the enrichment score is reported as inactive: 0.892. For B9, the enrichment score was inactive: 1.97. B10 was tested, and the enrichment score was inactive: 1.47. With B11 the enrichment score was inactive: 0.699. For B12, the enrichment score was inactive: 0.648. For B13, the enrichment score was inactive: 0.664. In the case of B14, the enrichment score is reported as inactive: 0.734. For B15, the enrichment score was inactive: 0.654. In the case of B16, the enrichment score is reported as inactive: 0.687. In the case of B17, the enrichment score is reported as inactive: 0.675. B18 was tested, and the enrichment score was inactive: 0.62.

The binders below were run against SHP2 N-SH2 domain T52S in the same assay as above. Details: peptide library: pTyr-Var.
B1 was tested, and the enrichment score was inactive: 1.25. With B2 the enrichment score was inactive: 0.797. In the case of B3, the enrichment score is reported as inactive: 0.937. With B4 the enrichment score was inactive: 0.131. B5 was tested, and the enrichment score was inactive: 0.619. With B6 the enrichment score was inactive: 0.506. B7 was tested, and the enrichment score was inactive: 0.632. With B8 the enrichment score was inactive: 0.614. With B9 the enrichment score was inactive: 2.4. In the case of B10, the enrichment score is reported as inactive: 1.52. For B11, the enrichment score was inactive: 0.64. B12 was tested, and the enrichment score was inactive: 0.582. For B13, the enrichment score was inactive: 0.777. In the case of B14, the enrichment score is reported as inactive: 0.701. In the case of B15, the enrichment score is reported as inactive: 0.637. In the case of B16, the enrichment score is reported as inactive: 1.53. In the case of B17, the enrichment score is reported as inactive: 0.656. For B18, the enrichment score was inactive: 0.793.

These binders were tested against SHP2 N-SH2 domain wild-type in the same assay as above. Details: peptide library: pTyr-Var.
In the case of B1, the enrichment score is reported as inactive: 1.09. B2 was tested, and the enrichment score was inactive: 0.712. With B3 the enrichment score was inactive: 0.689. For B4, the enrichment score was inactive: 0.206. With B5 the enrichment score was inactive: 0.844. With B6 the enrichment score was inactive: 0.637. For B7, the enrichment score was inactive: 0.888. In the case of B8, the enrichment score is reported as inactive: 0.675. With B9 the enrichment score was active: 3.21. With B10 the enrichment score was inactive: 1.59. For B11, the enrichment score was inactive: 0.87. For B12, the enrichment score was inactive: 0.889. With B13 the enrichment score was inactive: 1.13. In the case of B14, the enrichment score is reported as inactive: 1.02. With B15 the enrichment score was inactive: 0.541. B16 was tested, and the enrichment score was inactive: 0.813. In the case of B17, the enrichment score is reported as inactive: 0.752. In the case of B18, the enrichment score is reported as inactive: 0.899.
